These results are taken from PubChem BioAssay AID1508624 (National Center for Advancing Translational Sciences (NCATS), 2021).

Structures are written as SMILES. Hit rate of the full screen: of about 48,000 compounds, about 120 (0.25%) were called active. Another 4% or so got no clear call; they are omitted. The call rests on the fitted dose curve; in most records, active means well fitted activation curve with a large enough effect; inconclusive means small, poorly fitted or top-dose-only effect, or another doubt; inactive means no such curve, though single readings can be large or run the other way. The list shows a part of the results.

This assay in a line: Primary qHTS for Identification of Small Molecule Activators of Huntingtin-Antisense Promoter Activity. Further: nearly all actives have a fitted effect of over 55% in size. The conditions noted are these: HEK293 HTT-AS promoter firefly luciferase reporter, 24 h; series mostly up to 57.5 µM; activity change, positive = activation: at the top concentration. In outline: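 Quantitative HTS used concentration series of up to 57.5 uM final on HEK293 luciferase reporter cells, 24 h at 37 degrees C. Readout was Dual-Glo firefly luminescence.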
On the technique in general: Quantitative high-throughput screening tests each substance at several concentrations.
In the case of `CC(C)c1nc2ccc(C(=O)NCc3ccccc3Br)cc2o1`, the “activity change, positive = activation” value was inactive: 10.8%. Under `COc1ccc(CNC(=O)c2sc3nc[nH]c(=O)c3c2C)cc1` stands inactive: -4.14%. As for `CCOc1ccccc1N1CC(c2nc3ccccc3n2CCCOc2ccc(OC)cc2)CC1=O` (centres undefined), the “activity change, positive = activation” value is inactive: -2.09%.

As for `Cc1noc(-c2ccccc2OCC(=O)Nc2ccccc2[N+](=O)[O-])n1`, the “activity change, positive = activation” value was inactive: -6.44%. Take `COc1cccc(CNC(=O)c2ccc(-n3c(C)cc4c3CCCC4)cc2)c1`: the “activity change, positive = activation” value is inactive: -3.34%. For `CC(C)OCCCN1C(=O)c2[nH]nc(-c3ccccc3O)c2C1c1ccccc1F` (centres undefined) the value was inactive: -23.1%; for `CCOC(=O)c1cc(-c2ccc(F)cc2)n(CCC(=O)Nc2cc(OC)cc(OC)c2)c1C`, inactive: -36.7%. Under `Cn1c(=O)c2c(nc(N3CCOCC3)n2Cc2ccccc2F)n(C)c1=O` stands inactive: 2.93%; under `O=C(Nc1ccccc1C(F)(F)F)C1CCN(S(=O)(=O)c2ccccc2)CC1`, inactive: -5.85%; under `O=C(CSc1nc2ncccc2o1)Nc1ccc(Cl)cc1F`, inactive: 17.7%. For `COc1ccc(OC)c(NC(=O)c2cc3cccc(OC)c3oc2=O)c1` the value was inactive: 28.2%. On to `CCCNC(=O)c1ccc(Cn2c(SCC(N)=O)nc3ccccc3c2=O)cc1`, for which the “activity change, positive = activation” value was inactive: -20.6%.

In the case of `CCOc1ccccc1C(=O)N1CCc2cc(OC)c(OC)cc2C1COc1ccc(OC)cc1` (centres undefined), the “activity change, positive = activation” value is inactive: -19.9%. In the case of `COc1cccc(CNC(=O)Cn2ncn3c(cc4ccccc43)c2=O)c1`, the “activity change, positive = activation” value is inactive: 4.19%. For the compound `Cc1nn(-c2ccccc2)c(OC(=O)c2ccc(Cl)cc2)c1S(=O)(=O)c1ccccc1`, the “activity change, positive = activation” value is inactive: -10.8%. As for `COc1ccc(CNS(=O)(=O)c2cc3c(cc2Cl)NC(=O)CO3)cc1`, the “activity change, positive = activation” value is inactive: -14.1%. Consider `CCC(=O)Oc1c(Sc2ccc(C)cc2)c(C)nn1-c1ccccc1`, for which the “activity change, positive = activation” value was inactive: -18.3%. As for `O=C(c1cc(-c2ccc(Br)cc2)n[nH]1)N1CCN(S(=O)(=O)c2ccc(Cl)s2)CC1`, the “activity change, positive = activation” value was inactive: -15.8%. `COCCCn1c(SCC(=O)Nc2ccc(OC)cc2)nc2c(sc3ccccc32)c1=O`: the “activity change, positive = activation” value was inactive: -5.65%. Under `O=C(CSc1nc(=O)n(CCN2CCOCC2)c2c1CCC2)Nc1ccc(F)cc1F` stands inactive: -0.355%. Under `CC(C)CC(=O)Nc1ccc2nc(SCC(=O)N3CCOCC3)sc2c1` stands inactive: -26.1%; under `COC(=O)c1ccccc1NC(=O)c1ccc2c(c1)CCN2S(=O)(=O)c1ccc(Cl)cc1`, inactive: 15.5%; under `Cc1cc(C)c(S(=O)(=O)NCC2CCC(C(=O)NCCc3ccccc3)CC2)c(C)c1` (centres undefined), inactive: -13.5%. With `Cc1ccc(-c2c3c(=O)n(C)c(=O)n(C)c3c3c(-c4cccc(C)c4)nc4ccccc4n23)cc1`, the activity change, positive = activation was inactive: 9.19% [at 11.5 µM, percent change from vehicle, -100% = no light]. As to `Cc1ccc(C)c(Cn2c3ccccc3c3cnn(CC(=O)NC4CCCCCC4)c(=O)c32)c1`, the “activity change, positive = activation” value is inactive: 3.86%. Regarding `Cc1c(Cl)cccc1NC(=O)CSc1nc(=O)[nH]c2c1CCC2`, the “activity change, positive = activation” value is inactive: -16.2%.

Take `Cc1c2cnn(-c3ccccc3)c(=O)c2c(C)n1CCCC(=O)Nc1cccc(F)c1`: the “activity change, positive = activation” value is inactive: -5.44%.

As for `O=c1n(Cc2ccccc2)nc2n1-c1cc(Cl)ccc1OC2`, the “activity change, positive = activation” value was inactive: -3.15%. Under `COc1ccc(-c2cc(OC(=O)c3cccc(Cl)c3)c3c(C)oc(C)c3c(=O)c2)cc1OC` stands inactive: -24%; under `COc1ccc(CN(Cc2ccco2)C(=O)COc2ccccc2Cl)cc1`, inactive: -16%; under `CC(NS(=O)(=O)c1ccc2c(c1)CCN2C(=O)CCCC(=O)O)c1ccccc1` (centres undefined), inactive: 1.02%.

Take `COC1=CC(=O)C[C@@H](C)[C@]12Oc1c(Cl)c(OC)cc(OC)c1C2=O`: the “activity change, positive = activation” value was inactive: -26%.

Take `COc1cc(OC)cc(C(=O)N2CCN(C(=O)COc3ccc(C)cc3)CC2)c1`: the “activity change, positive = activation” value was inactive: 2.9%. For `COc1cccc(-n2c(SCC(=O)Nc3ccc4c(c3)OCO4)nc3c([nH]c4ccccc43)c2=O)c1` the value was inactive: -18.4%. For `CCN(CC)c1ccc(NC(=O)Cn2nc3c(cc2=O)CCCC3)c(C)c1` the value was inactive: -17.5%. For the compound `CCc1c(C)sc(NC(=O)c2cc3nc(-c4ccc(OC)cc4)cc(C(F)(F)F)n3n2)c1C(=O)OC`, the “activity change, positive = activation” value is inactive: -1.64%.

With `CCC(=O)NCC[C@@H]1CCc2ccc3c(c21)CCO3`, the “activity change, positive = activation” value was inactive: 12.2%. Under `Cc1ccccc1NC(=O)CSc1nc(-c2cccs2)nc2cc(=O)[nH]n12` stands inactive: -14%.

As for `COc1ccc(-n2nc(C(=O)Nc3cc(C)c(Cl)cc3OC)c3c4ccccc4n(C)c3c2=O)cc1`, the “activity change, positive = activation” value is inactive: -7.95%.

As for `COc1cc(C2c3c(-c4cc(C)ccc4O)n[nH]c3C(=O)N2Cc2ccco2)cc(OC)c1OC` (centres undefined), the “activity change, positive = activation” value was inactive: -13.5%.

Consider `COC(=O)CSc1nc2sc3c(c2c(=O)n1-c1ccccc1)C(C)CCC3` (centres undefined), for which the “activity change, positive = activation” value is inactive: 1.44%. As to `O=C(Cn1cc(SCc2ccc(Cl)cc2)c2ccccc21)N1CCOCC1`, the “activity change, positive = activation” value is inactive: 13.2%.

As to `CCCc1nn2c(=O)cc(COC(=O)c3cccc(NC(=O)c4ccc(OCC)cc4)c3)nc2s1`, the “activity change, positive = activation” value was inactive: -15.4%. Under `COc1ccc(NC(=O)c2cc(S(=O)(=O)N3CCCC(C)C3)cn2C)c(OC)c1` (centres undefined) stands inactive: -19.9%; under `COc1ccc(NC(=O)CSc2nc3ccccc3n2CC(=O)N(C)C2CCCCC2)cc1`, inactive: 7.42%; under `Cc1cc(Cl)ccc1NS(=O)(=O)c1c(C(=O)N2CCCCCC2)c(C)n(C)c1C`, inactive: -17.7%. Turning to `Cc1ccc(-c2nc3sc(CCNC(=O)c4ccc(F)c(F)c4)c(C)n3n2)cc1`, the “activity change, positive = activation” value was inactive: -6.96%. Under `CC1=C(C(=O)Nc2ccccc2Br)C2(CCC(C)CC2)OC1=O` (centres undefined) stands inactive: -21.5%; under `CCCCC12CN3CC(C)(CN(C1)C3c1ccc(OCc3ccccc3)cc1)C2=O` (centres undefined), inactive: 15.5%; under `O=C(C1CCN(S(=O)(=O)c2cccs2)CC1)N1CCN(c2ccccc2F)CC1`, inactive: -19.6%. For `Cc1ccc(CNC(=O)CCCCCn2c(=O)c3sccc3n(CC(=O)N3CCCCC3C)c2=O)cc1` (centres undefined) the value was inactive: 8.28%; for `FC(F)(F)c1cccc(Nc2nc3nonc3nc2Nc2ccc(Cl)cc2)c1`, inactive: -93.5%. Under `Cc1ccccc1NC(=O)c1c(C)oc2ccc(O)c(CN3CCCCCC3)c12` stands inactive: -36.4%.

Consider `CCC(CC)C(=O)Nc1ccc(S(=O)(=O)N2CCC(c3nc4ccccc4s3)CC2)cc1`, for which the “activity change, positive = activation” value is inactive: -19.6%. For `Cc1nc(-c2ccc(S(=O)(=O)N3CCN(c4ccccc4F)CC3)cc2)co1` the value was inactive: -29.9%; for `Cc1ccccc1NC(=O)c1sc2nc(-c3cc4ccccc4oc3=O)[nH]c(=O)c2c1C`, inactive: -9.1%; for `CNC(=O)c1c(I)c(NC(C)=O)c(I)c(C(=O)O)c1I`, inactive: 0.746%. For `CCN(C(=O)Cn1c(C(=O)OC)cc2sccc21)c1cccc(C)c1` the value was inactive: -14.2%. Under `CCCn1cc(S(=O)(=O)c2ccc(C)c(C)c2)c(=O)c2cc(F)c(N3CCCCC3)cc21` stands inactive: -8.1%. For the compound `CC(C)NC(=O)c1ccc(CSc2nc3ccncc3n2Cc2cccc(F)c2)cc1`, the “activity change, positive = activation” value is inactive: -6.1%. For `CC(C)c1ccc(C2CC(=O)N3CN(C4CCCCC4)CSC3=C2C#N)cc1` (centres undefined) the value was inactive: -23%; for `CCCCN(CCCC)CCCNC(=O)c1cc(-c2ccc(Cl)s2)nc2ccccc12`, inactive: -11.1%; for `Cn1ccc2cc(S(=O)(=O)N3CCCC(C(=O)NCc4ccccc4F)C3)ccc21` (centres undefined), inactive: -25.6%. For the compound `Cc1ccccc1-c1nc(CNC(=O)NC2CCCCC2)c(C)o1`, the “activity change, positive = activation” value was inactive: -8.63%.

With `CC1=C(C(=O)Nc2ccccc2)C(c2ccc(Br)cc2)n2nc(CCCO)nc2N1` (centres undefined), the “activity change, positive = activation” value was inactive: 4.02%. Under `COc1ccc(-n2ncc3c2ncn2nc(-c4ccc(OC)c(OC)c4)nc32)cc1` stands inactive: -9.25%; under `COc1ccccc1N1CCN(C(=O)c2nn(C)c3c2CS(=O)(=O)c2ccccc2-3)CC1`, inactive: -4.72%; under `COc1cccc(CNC(=O)CN2C(=O)COc3ccc(S(=O)(=O)N4CCCCC4)cc32)c1`, inactive: -25.3%. For `CCn1cc2nc(SCc3cc(C)ccc3C)n(Cc3ccc(Cl)cc3)c(=O)c2n1`, the “activity change, positive = activation” value is inactive: 18%. Take `CCN(CC)c1ccc(CN(C(=O)c2cc(=O)c3ccccc3o2)C2CCS(=O)(=O)C2)cc1` (centres undefined): the “activity change, positive = activation” value was inactive: -15%. For `C=CC(=O)N1CCc2ccc(-n3c(=O)ccc4cnc5ccc(-c6cnn(C)c6)cc5c43)cc21` the value was inactive: -35.6%. For `Cn1cc(S(=O)(=O)N2CCCC2)cc1C(=O)Nc1ccc(F)cc1F`, the “activity change, positive = activation” value was inactive: -14.8%. For `CCOC(=O)c1ccc(NC(=O)Cc2noc3ccc(C)cc23)cc1` the value was inactive: 8.87%; for `O=C(CSc1nc2c([nH]c3ccccc32)c(=O)n1-c1ccccc1)N1CCCCC1`, inactive: -5.3%. For `CC(C)CCNC(=O)c1cc(-c2cccnc2)nc2ccc(S(=O)(=O)N3CCC(C)CC3)cc12` the value was inactive: -6.89%. `COc1ccc(NC(=O)c2nnn(-c3ccc(C(C)C)cc3)c2C)c(OC)c1`: the “activity change, positive = activation” value was inactive: 1.23%. Take `CCCCC1=NC2(CCCC2)C(=O)N1Cc1ccc(-c2ccccc2-c2nn[nH]n2)cc1`: the “activity change, positive = activation” value was inactive: -10.8%. For `COc1ccc(OC)c(-c2noc(N3CCN(c4cccc(C(F)(F)F)c4)CC3)n2)c1` the value was inactive: -26.3%; for `Cc1cccc(-n2c3nc(=O)[nH]c(=O)c-3cc3ccc(Cl)cc32)c1C`, inactive: -44.2%.

On to `Cn1c(CN2CCOCC2)nc2cc(NC(=O)c3ccccc3[N+](=O)[O-])ccc21`, for which the “activity change, positive = activation” value is inactive: -15.4%.

Turning to `CCOc1cccc2sc(N3CCN(C(=O)c4ccco4)CC3)nc12`, the “activity change, positive = activation” value is inactive: -4.86%. Under `COc1cc(OC)c(NC(=O)c2ccc(-n3cnc4cccnc43)cc2)cc1Cl` stands inactive: -16.6%; under `O=C(NCCCN1CCN(c2ccc(F)cc2)CC1)Nc1ccccc1Cl`, inactive: -17.1%. For `CC(=O)Nc1cccc(NC(=O)CSc2nccn2Cc2ccccc2)c1` the value was inactive: -15.9%. Under `CC1=C(c2ccc(C(C)C)cc2)S(=O)(=O)N=C1N1CCC(C(=O)NCc2ccc(C)o2)CC1` stands inactive: -11%. In the case of `O=C(NC1CCCCC1)c1ccc(CSc2nc3cccnc3n2Cc2ccccc2)cc1`, the “activity change, positive = activation” value was inactive: -25.3%.

`Cc1ccccc1-c1noc(-c2ccc(NCc3cccnc3)c([N+](=O)[O-])c2)n1`: the “activity change, positive = activation” value was inactive: -16.3%. For the compound `Cc1c(CC(=O)NCCc2ccccc2)c(=O)oc2c(C)c3occ(C(C)(C)C)c3cc12`, the “activity change, positive = activation” value was inactive: -8.6%. As to `CC(=O)c1cccc(NC(=O)Cn2ccn3nc(-c4ccccc4)cc3c2=O)c1`, the “activity change, positive = activation” value was inactive: 2.97%. Under `Cc1cc(Nc2cc(Cl)ccc2C)n2nc(-c3ccccc3)nc2n1` stands inactive: -40.5%; under `CCOC(=O)c1c(N)n(-c2ccc(OCC)cc2)c2nc3ccccc3nc12`, inactive: 0.0925%; under `Cc1ccc(CN(Cc2cccn2-c2nnc(N3CCCC3=O)s2)C(=O)Nc2ccccc2Cl)cc1`, inactive: -20.7%. For `O=C(COc1ccccc1-c1nc(-c2ccccc2)no1)Nc1ccc([N+](=O)[O-])cc1`, the “activity change, positive = activation” value is inactive: -9.21%.

In the case of `Cc1cc(C)c2c(NC(=O)c3ccccc3Cl)c(C(=O)NCc3ccc(Cl)cc3)sc2n1`, the “activity change, positive = activation” value was inactive: -39.9%.
